# The other results are listed elsewhere or left out. These are noisy estimates, calculated here from bound and input reads.
# Target: T1, Pho4 (S. cerevisiae) (UniProt P07270)
# T1 sequence: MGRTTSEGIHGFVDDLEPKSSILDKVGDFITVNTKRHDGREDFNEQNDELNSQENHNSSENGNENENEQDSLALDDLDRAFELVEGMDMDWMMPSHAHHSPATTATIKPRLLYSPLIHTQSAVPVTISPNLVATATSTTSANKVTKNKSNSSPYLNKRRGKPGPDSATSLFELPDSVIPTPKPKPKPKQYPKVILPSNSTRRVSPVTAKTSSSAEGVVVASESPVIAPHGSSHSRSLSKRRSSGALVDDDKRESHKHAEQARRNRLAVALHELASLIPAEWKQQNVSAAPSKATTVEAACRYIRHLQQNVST
# Experiment: relative binding free energy (BET-seq); higher = weaker binding
# Settings: reference: library average
row,Sequence,relative binding free energy [kcal/mol]
1,TCGTTCACGTGTTTAA,0.27
2,TATATCACGTGTCTGA,0.13
3,GGCGGCACGTGTTGTA,-0.02
4,AGTCACACGTGGTGGA,-0.1
5,ATTCGCACGTGGCGGT,-0.18
6,GGGATCACGTGTTGCT,0.19
7,TTTGTCACGTGAGGTA,0.31
8,AGGCGCACGTGTTGGC,-0.15
9,GGGATCACGTGAGATG,0.22
10,ATAGGCACGTGAGAAG,0.03
11,CTCAGCACGTGTAGGG,0
12,AGTCTCACGTGAGAGG,0.33
13,AAGTTCACGTGTTCGG,0.16
14,AGGCGCACGTGATGGT,0.05
15,GATTGCACGTGCTGGT,0.08
16,TATTGCACGTGAGTCT,0.13
17,GATGGCACGTGAATTT,0.34
18,CTATTCACGTGTGGTG,0.29
19,CTCTTCACGTGGTTTT,0.22
20,TGTATCACGTGATGGG,0.27
21,CGCTTCACGTGAGGGT,0.33
22,GAGGGCACGTGAGCGG,0.15
23,GGGTTCACGTGAGGGG,0.4
24,TGGTACACGTGATTGC,0.13
25,ACGGACACGTGGGGGG,-0.09
26,GTCTACACGTGTTGGT,0.13

row,Sequence,relative binding free energy [kcal/mol]
1,TGGTGCACGTGCGAAG,-0.08
2,GATGACACGTGGGTCT,0.09
3,GTGTGCACGTGGCTCT,-0.11
4,TGGGTCACGTGTAATG,0.22
5,CAAGACACGTGGGTTT,-0.13
6,GTGAACACGTGTAAGT,0.04
7,TGTTACACGTGTGGCG,0.09
8,AGTGTCACGTGGAGAA,0.03
9,GCTGGCACGTGTGTGT,-0.02
10,CCGTTCACGTGATGGT,0.51
11,TTGGACACGTGCGGCG,-0.11
12,TCCTGCACGTGTTGTA,0.04
13,GATTACACGTGCTTGG,0.11
14,TGAGACACGTGAGCTT,0.31
15,GTTCGCACGTGTTTGG,0.03
16,ATGTGCACGTGTGAAA,-0.02
17,ATTGGCACGTGATTAA,0.01
18,GGTTCCACGTGAGTGT,0.16
19,TATGGCACGTGCAGGG,-0.12
20,GTGGGCACGTGACTAT,0.12
21,ATTTTCACGTGCTAGG,0.22
22,TGGGTCACGTGGCGTT,0
23,TGGGGCACGTGACGCG,-0.12
24,ACTGGCACGTGTAGGG,-0.07
25,GATTACACGTGGGGTA,-0.16
26,GGTGTCACGTGTAGTC,0.17

row,Sequence,relative binding free energy [kcal/mol]
1,TGTTGCACGTGAATAG,0.16
2,GGTCGCACGTGTCAGT,0.03
3,TTGGGCACGTGTAGTT,-0.03
4,GGGTGCACGTGTTGCT,0.01
5,CTAATCACGTGAGTGT,0.23
6,AGGGTCACGTGCGAGA,0.05
7,TGGGCCACGTGTGCTG,-0.14
8,ATGCGCACGTGGGTGG,-0.29
9,TAGAGCACGTGGTACG,-0.2
10,AGTTTCACGTGCTGAT,0.3
11,CGGTTCACGTGATTGA,0.26
12,TGTGGCACGTGGTGGA,-0.09
13,TTGAACACGTGTGCTT,0.07
14,TGATTCACGTGCTTAG,0.32
15,TGACGCACGTGTGGTA,-0.1
16,TGAGGCACGTGGGACA,-0.29
17,CTTCGCACGTGGAGGG,-0.02
18,TTTTGCACGTGGGTCC,-0.06
19,GTGGCCACGTGGACGG,0.08
20,GGCCGCACGTGGAGGG,0.02
21,ACGTGCACGTGTGGTT,-0.24
22,TTTAACACGTGTTCGT,-0.13
23,GCGTGCACGTGTTAAG,0.1
24,ATGTGCACGTGGTGGC,-0.13
25,AGAGACACGTGGCGGG,-0.08
26,ATGGGCACGTGCTTGA,-0.11

row,Sequence,relative binding free energy [kcal/mol]
1,TTGAGCACGTGTTGTA,-0.19
2,ATTGTCACGTGAGTGC,0.21
3,TATGGCACGTGCATTT,-0.11
4,ATGAGCACGTGTAAGG,0.01
5,CTGGTCACGTGATCGG,0.26
6,ATTAACACGTGGATTG,-0.09
7,CGGGCCACGTGGTAGT,-0.09
8,GGACGCACGTGTGTGC,0.1
9,GTTCGCACGTGGTGCG,-0.07
10,GTGGTCACGTGTGCGC,0.13
11,TAAGTCACGTGTATGG,0.02
12,CTATTCACGTGGGTTT,0.29
13,CATGGCACGTGTATAG,-0.02
14,GCGTTCACGTGTTAGG,0.17
15,TGTATCACGTGGTCTG,0.01
16,GACGGCACGTGTAGTG,-0.01
17,TACGGCACGTGGTTGC,-0.07
18,TGCGCCACGTGTGGAT,-0.06
19,TGGAACACGTGGATTT,0.09
20,TTAATCACGTGGTTCT,0.11
21,GTAGGCACGTGCGTAG,-0.05
22,TTTGTCACGTGGAACA,0.14
23,CGGTACACGTGTTTAT,-0.01
24,TATAGCACGTGATGCG,0.04
25,GCGCGCACGTGGTTGT,-0.01
26,GAGATCACGTGGGATA,0.2

row,Sequence,relative binding free energy [kcal/mol]
1,TAAATCACGTGGGGTG,-0.11
2,AGAGTCACGTGTGTAA,0.1
3,GACTGCACGTGTGTTG,0.03
4,GCAGGCACGTGACGGG,0.16
5,GGAGACACGTGTAGTT,0.01
6,TTGCTCACGTGTGCAG,0.38
7,TCGTTCACGTGAGTGA,0.36
8,GCGGCCACGTGGGTGG,-0.24
9,TACGGCACGTGTAAGG,0.12
10,ATCTTCACGTGGAAGG,0.41
11,TGAGACACGTGGATAG,-0.04
12,TCAGACACGTGTGGTT,0.1
13,CGGGGCACGTGTTAGG,-0.09
14,ATATACACGTGAGTTT,0.12
15,TTTGTCACGTGTTCGA,0.09
16,CGTTGCACGTGATTTA,0.01
17,TCGGCCACGTGTGGGA,0.05
18,ATCGTCACGTGTGATT,0.11
19,AGAAGCACGTGAGGAG,0.17
20,ATGCTCACGTGATTGG,0.32
21,CAGATCACGTGGGGTG,0.04
22,TTAATCACGTGGACTG,0.2
23,TTGGACACGTGGAGCT,0.04
24,ATGATCACGTGAGCGG,0.26
25,AGAAGCACGTGTGTGT,-0.1
26,GGGCACACGTGGTGGC,0.05

row,Sequence,relative binding free energy [kcal/mol]
1,CGGGCCACGTGATGGG,0.09
2,TAAGTCACGTGTGAAG,0.2
3,GGGGTCACGTGCGAGA,0.1
4,GTATCCACGTGGCGGG,0.01
5,GTGTGCACGTGGGAAG,0.02
6,CATTACACGTGGGATG,0.15
7,TAGGTCACGTGGGTAA,-0.04
8,TTGAGCACGTGTGCTT,0.11
9,TTTTACACGTGGGGGT,0.02
10,ATATTCACGTGAATGG,0.14
11,AGAAGCACGTGGAGGT,0.06
12,TTATGCACGTGATAGG,0.13
13,GGTCGCACGTGTTTGT,-0.02
14,GGTATCACGTGCTCGG,0.13
15,GGGGGCACGTGGCCAG,-0.25
16,TTCTACACGTGATGGG,0.1
17,TTTTGCACGTGGGGAT,-0.02
18,TTAAACACGTGAGGGG,0.18
19,CGAGCCACGTGGTGTG,-0.22
20,GAGGACACGTGATCGG,0.23
21,GATCGCACGTGCGGTT,0
22,TCGATCACGTGTTATG,0.13
23,GTAGTCACGTGGTCGA,0.04
24,GATTTCACGTGTGCAT,0.41
25,GGCGCCACGTGTTGGG,0.03
26,AGGGGCACGTGTCGTT,-0.1

row,Sequence,relative binding free energy [kcal/mol]
1,ATTTACACGTGGTTTT,-0.01
2,TAGGTCACGTGAGTAG,0.32
3,CTGTTCACGTGGCTGG,0.1
4,TGGTGCACGTGTGAAA,0.13
5,TTACTCACGTGATTGG,0.21
6,TTTATCACGTGTTTGG,0.19
7,ACGAGCACGTGTAGGT,-0.24
8,GTAGCCACGTGCGGGG,-0.12
9,GGGCTCACGTGTAGCG,0.19
10,AAATACACGTGAGTTG,0.2
11,GTTGGCACGTGGATCA,-0.03
12,CGTCGCACGTGTGGTG,-0.06
13,GGGTGCACGTGGATCT,0.14
14,GGGTGCACGTGGAAGA,0.09
15,TCGGGCACGTGAAATT,0.26
16,TAAATCACGTGAGAGT,0.33
17,GGATTCACGTGTTGGC,0.26
18,GTGTTCACGTGTTGAT,0.22
19,GGGTTCACGTGGCGTG,0.21
20,TAGGGCACGTGTGCTT,-0.13
21,TATTTCACGTGCGGAG,0.23
22,AGTAACACGTGGGTGG,-0.05
23,CTGTTCACGTGGACGG,0.45
24,ATGAGCACGTGGGCAT,-0.33
25,TAATTCACGTGTAAGA,0.28
26,GGTCACACGTGGATTG,0.06

row,Sequence,relative binding free energy [kcal/mol]
1,TTATGCACGTGATAGC,0.12
2,TTAACCACGTGAGTTT,0.33
3,TTGGTCACGTGTAACT,0.2
4,AGCTGCACGTGGTGTC,-0.16
5,ATCTTCACGTGGTGTA,0.12
6,CTTGGCACGTGGTAGA,-0.11
7,ATGAACACGTGTTAGG,0.18
8,AGTAACACGTGGGTTT,0.01
9,GGGGACACGTGGGTCA,0.03
10,AATAGCACGTGCGTGG,-0.1
11,ATTGACACGTGATGAG,0.09
12,TTGGGCACGTGCTGAG,-0.02
13,ATTTACACGTGTGGCA,0.08
14,AGTAACACGTGATGGC,0.14
15,GTAGTCACGTGGCCGG,0.04
16,TAGGCCACGTGCGGGG,-0.19
17,ATTGGCACGTGCGAGG,-0.14
18,TGATTCACGTGAGAAT,0.31
19,TCTTTCACGTGTAGGG,0.26
20,ATCTGCACGTGTTTTG,-0.03
21,TAGTACACGTGCTTGG,-0.03
22,AGCGGCACGTGTCTGG,-0.16
23,TAGATCACGTGGGTCT,0.17
24,ATGTGCACGTGGTAGG,-0.12
25,TACTTCACGTGAATTT,0.58
26,CGTGTCACGTGTTTTG,0.05

row,Sequence,relative binding free energy [kcal/mol]
1,TCGGTCACGTGAGGGG,0.27
2,ATTGTCACGTGTGTAT,0.11
3,ATAGACACGTGATTTT,0.05
4,GGTAGCACGTGCTTTT,-0.07
5,TAGATCACGTGTTGTG,0.22
6,GCGGGCACGTGTAGAG,-0.04
7,AAGGTCACGTGTATAT,0.04
8,TATTTCACGTGTGATG,0.26
9,TCGGTCACGTGTGCGG,0.09
10,GGCGGCACGTGAGTTA,0.16
11,TGTCGCACGTGTCGAG,-0.01
12,GGATTCACGTGAGGTG,0.37
13,GGTACCACGTGGGCGG,-0.2
14,GATGTCACGTGCAGGT,0.06
15,GTAGTCACGTGAAGAT,0.39
16,CTTGTCACGTGTTTCG,0.13
17,GTTGTCACGTGGTGGT,0.14
18,TTAAACACGTGAGTTA,0.18
19,AGTGGCACGTGGGGTG,-0.16
20,TGTTTCACGTGTCGAG,0.11
21,AATAGCACGTGTCGGG,-0.13
22,AACTTCACGTGTGGTA,0.39

# Source: the BET-seq Pho4 binding data (Le et al. 2018)
